# Measured values as given in publication PMC9605988, “Juxtaposition of Bub1 and Cdc20 on phosphorylated Mad1 during catalytic mitotic checkpoint complex assembly” (Nature Communications, 2022).
# T1: Mad1^485–718 (Mad1^485), unphosphorylated (UniProt Q9Y6D9 485-718)
# T1 construct: Mad1 residues 485-718; Construct His6-DoubleStrep-TEV-Mad1^485–718; two copies in the tetramer and hexamer with Mad2; also called Mad1 residues 485–718
# T1 sequence (looked up): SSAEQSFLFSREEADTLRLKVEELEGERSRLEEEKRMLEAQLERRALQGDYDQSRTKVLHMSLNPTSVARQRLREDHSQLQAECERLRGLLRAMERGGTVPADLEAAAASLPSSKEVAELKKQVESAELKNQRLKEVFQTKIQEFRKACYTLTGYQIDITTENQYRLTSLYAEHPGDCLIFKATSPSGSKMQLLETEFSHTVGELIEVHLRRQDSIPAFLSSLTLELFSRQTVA
# T2: Mad1^485–718 phosphorylated by Mps1 (pMad1^485) (UniProt Q9Y6D9 485-718, phosphothreonine at 716 (predominant); lower abundant phosphorylation at Thr500, Ser538, Thr540, Thr550 and Ser551)
# T2 construct: Mad1 residues 485-718; Predominantly one phosphate per monomer by intact mass; also called phosphorylated Mad1^485; phosphorylated Mad1^485–718
# T2 sequence (looked up): T1 sequence (looked up)
# B1: Mad2 wild type (C-Mad2 when bound to Mad1) (natural protein)
# chain: not shown
# notes: Mad2; Two copies of C-Mad2 per Mad1 dimer; The separately purified Mad2 has a TEV site after the tag; also called Mad2 WT; source: baculovirus co-expression with Mad1^[…]; further Mad2 WT purified on its own and added in excess
# B2: Mad2 R133A (dimerisation-deficient), in the tetrameric Mad1^[…]:C-Mad2^R133A complex (natural protein)
# chain: not shown
# notes: Mad2; source: baculovirus co-expression with Mad1^[…]; further Mad2 R133A purified on its own and added in excess
# What was measured:
# [1] = target: T1, Mad1^485–718 (Mad1^485), …; assay: SEC + SEC-MALS; Mad1:C-Mad2 tetramer re-purified by SEC after adding excess Mad2; hexamer formed with an excess of Mad2LL; homogeneity confirmed by SEC-MALS; settings: both partners purified
# [2] = target: T2, Mad1^485–718 phosphorylated by Mps1 …; assay: as above; settings: both partners purified
Binder,binding result [1],binding result [2]
B1,binds,binds
B2,binds,
